# Test results reported in PubChem BioAssay AID485364 (National Center for Advancing Translational Sciences (NCATS), 2010).
# Among all 360,000 compounds or so, about 11,000 (3.1%) were called active. The inconclusive results got no clear call from the source; some entries with a clear call stand among them for comparison. The call rests on the fitted dose curve; in most records, active means well fitted inhibition curve with a large enough effect; inconclusive means small, poorly fitted or top-dose-only effect; inactive means no such curve, though single readings can be large or run the other way. No potency is given beside an inconclusive call; the fits are too rough.
# Target: Schistosoma mansoni thioredoxin glutathione reductase (TGR) (UniProt Q962Y6)
# Test: qHTS Assay for the Inhibitors of Schistosoma Mansoni Peroxiredoxins; further: nearly all actives have a fitted effect of over 60% in size
# Conditions: purified TGR, DTNB reduction, TNB absorbance 405 nm; series mostly up to 114 µM
# Outline: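 TGR 20 nM + NADPH 100 uM (dispensed conc.), cpd preinc 15 min RT; start with NADPH (500 uM addition) then DTNB (15 mM addition). Kinetic TNB absorbance, 405 nm filter. Four-parameter Hill fit across titration.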
# Potency means the concentration at half of the fitted maximal effect; tags describe the fitted curve by direction and shape.
row,Structure (SMILES),Potency
1,CN(C)CCNC(=O)c1cc2c(=O)n(C)c3ccccc3c2n1C,"inconclusive [inhibitor, partial curve, poor fit]"
2,CCCn1c(SCC(=O)c2cc(OC)ccc2OC)nnc1C(C)C,"inconclusive [inhibitor, partial curve]"
3,Cc1ccc(NC(=S)Nc2c(C)n(C)n(-c3ccccc3)c2=O)cc1,"inconclusive [inhibitor, single point]"
4,CN1CCN(C(=O)c2c(O)c3cccc4c3n(c2=O)CC4)CC1,"inconclusive [inhibitor, single point]"
5,COCCN1C(=O)N(c2cccc(C)c2)C(=O)C1CC(=O)Nc1ccc(OC)cc1 (stereo unspecified),"inconclusive [inhibitor, partial curve]"
6,CN1C(=O)C(=Cc2ccc(SC3CCCCC3)o2)C(=O)N(C)C1=O,"inconclusive [inhibitor, partial curve]"
7,CC(C)Oc1ccc(Cc2cnc(=S)[nH]c2N)cc1,active: 70.8 µM
8,CCn1c(COc2ccc3c(c2)OCO3)nnc1SCC(=O)c1ccccc1,"inconclusive [inhibitor, full curve]"
9,COc1cc(CNCCc2c[nH]c3ccccc23)cc(OC)c1,"inconclusive [inhibitor, full curve, poor fit]"
10,COc1cc(/C=C2\SC(=S)N(NS(=O)(=O)c3ccc(C)cc3)C2=O)ccc1O,"inconclusive [inhibitor, partial curve]"
11,N#C/C(=C\c1ccc(O)c(O)c1)C(=O)Nc1cccc2ncccc12,"inconclusive [inhibitor, partial curve, poor fit]"
12,CCOc1ccccc1NC(=S)NC(=O)C1CCCCC1,active: 8.91 µM
13,Cc1ccccc1-c1nc(CS(=O)CC(=O)NC2CC2)c(C)o1 (stereo unspecified),"inconclusive [inhibitor, partial curve]"
14,O=C1CC(Sc2ncccn2)C(=O)N1c1ccccc1 (stereo unspecified),"inconclusive [inhibitor, partial curve]"
15,COc1ccc(-c2cc(C(F)(F)F)nc(S(=O)(=O)CCCC(=O)Nc3cccnc3Cl)n2)cc1OC,"inconclusive [inhibitor, full curve]"
16,Cc1cccc(NC(=S)Nc2ccccn2)c1,"inconclusive [inhibitor, partial curve]"
17,CC(=O)C1=C(O)C(=O)N(CCc2c[nH]c3ccccc23)C1c1ccco1 (stereo unspecified),active: 39.8 µM
18,CC1=C(C(=O)OCC2CCCO2)C(c2ccc(C)o2)C2=C(CC(c3ccc(F)cc3)CC2=O)N1 (stereo unspecified),"inconclusive [inhibitor, partial curve]"
19,COc1cccc(NC(=O)Cn2c(=O)n(-c3ccc(Cl)cc3)c(=O)c3sc4ccccc4c32)c1,"inconclusive [inhibitor, single point]"
20,COc1cccc(C(O)c2nccn2Cc2ccccc2)c1OC (stereo unspecified),"inconclusive [inhibitor, partial curve]"
21,CCOC(=O)/C=C/C(=O)Nc1cc(S(=O)(=O)Nc2ccc(OC)cc2)ccc1N1CCOCC1,active: 31.6 µM
22,C[C@H]1C=C(C(=O)N2CCN(Cc3ccc4c(c3)OCO4)CC2)O[C@@H](OCc2ccc(CO)cc2)C1,"inconclusive [inhibitor, partial curve, poor fit]"

row,Structure (SMILES),Potency
1,Nc1nc(CN2CCN(c3ccccc3)CC2)nc(N2CCCc3ccccc32)n1,"inconclusive [inhibitor, single point]"
2,Oc1ccc(/C=N/Nc2ccc(Cl)nn2)cc1O,"inconclusive [inhibitor, partial curve]"
3,Cc1ccc(CNC(=O)c2cc(-c3ccccc3)nn2Cc2cc(C)no2)cc1,"inconclusive [inhibitor, partial curve]"
4,Cc1noc(-c2ccc(NCc3ccccc3)c([N+](=O)[O-])c2)n1,inactive
5,COc1ccc(OC)c(-n2c(-c3cnccn3)n[nH]c2=S)c1,inactive
6,COc1ccc2c(c1)CC/C(=C\C=C\c1ccccc1OC)C2=O,active: 28.2 µM
7,Cc1cc(C)cc(NC(=O)CCC(=O)Nc2cc(C)on2)c1,"inconclusive [inhibitor, single point]"
8,COc1ccc(CC2=C(O)c3ccccc3C(=O)C2=O)cc1,"inconclusive [inhibitor, partial curve]"
9,O=C(Oc1cccc(NC(=O)c2ccco2)c1)c1cccc(S(=O)(=O)N2CCCC2)c1,inactive
10,COc1cc(NC(=S)Nc2ccc(S(=O)(=O)N3CCOCC3)cc2)cc(OC)c1OC,"inconclusive [inhibitor, partial curve, poor fit]"
11,C#CCOCCOCCOCCNc1nc(N2CCN(C(=O)CCCCCCCCCCNC(=O)[C@H]([C@@H](C)CC)n3cc(CCCCN=C(N)N)nn3)CC2)nc(N2CCN(C(=O)CCCCCCCCCCNC(=O)[C@H](CCCCN)n3cc(C[C@@H](C)CC)nn3)CC2)n1,"inconclusive [inhibitor, partial curve]"
12,CCOc1ccc(CCNC(=O)COC(=O)c2sccc2C)cc1OCC,"inconclusive [inhibitor, partial curve]"
13,CCOC(=O)CNc1nnc(SCC(=O)OCC)[nH]c1=O,active: 56.2 µM
14,CCCCOc1ccc2c(c1)C(=O)c1cc(O)ccc1-2,inactive
15,O=C(NNc1ccc(Cl)cc1)c1sccc1Cl,"inconclusive [inhibitor, partial curve]"
16,COc1ccccc1NC(=O)Nc1ccc(NC(=O)c2ccccc2O)cc1,inactive
17,COc1ccc(C(=O)NCC2(N3CCN(C)CC3)CCCCC2)cc1,inactive
18,Cc1ccc(CNS(=O)(=O)c2ccc(CN3C(=O)c4cccnc4C3=O)s2)o1,"inconclusive [inhibitor, partial curve]"
19,CN(C)[C@@H]1CCC[C@@H]1OC(=O)C(c1ccccc1)c1ccccc1,"inconclusive [inhibitor, single point]"
20,Cn1cnc2cc(NCc3cccs3)ccc21,"inconclusive [inhibitor, single point]"
21,CC(=C\c1ccco1)/C=C1/SC(=S)N(CC(=O)O)C1=O,active: 39.8 µM
22,CCOC(=O)C1=C(C)NC(C)=C(C(=O)OCC)C1c1cc2ccc(C)cc2[nH]c1=O,"inconclusive [inhibitor, partial curve]"

row,Structure (SMILES),Potency
1,Cc1oc(-c2ccc(Cl)cc2)nc1CN1CCC(C(=O)NCCCN2CCN(c3cccc(Cl)c3)CC2)CC1,"inconclusive [inhibitor, single point]"
2,CC(=O)c1cc(C(C)=O)c(C)[n+](C)c1C,inactive
3,COc1ccc(NC(=O)c2ccc(N3CCOCC3)nc2)cc1,inactive
4,O=C(C1=NN[C@@H]2C(=O)N(c3cccc(F)c3)C(=O)[C@H]12)c1ccc2ccccc2n1,"inconclusive [inhibitor, partial curve]"
5,O=C(N/N=C\C=C\c1ccc([N+](=O)[O-])o1)c1cccs1,active: 10 µM
6,O=C(CSc1nc2ncccc2[nH]1)NCc1ccco1,"inconclusive [inhibitor, full curve]"
7,CSC1=NSC2=NC(=O)/C(=C\c3ccc(OC(=O)c4ccco4)cc3)C(=N)N12,inactive
8,CC(C)=C[C@@H]1C[C@H](C)[C@H]2CC[C@H](C)c3c(O)c(O)c(C)c1c32,inactive
9,CCc1nn(CCCC(=O)N2CCc3ccccc3C2)c(=O)c2cc3occc3n12,"inconclusive [inhibitor, partial curve]"
10,Cc1nnc(N2CCC(C(=O)NC3CCCCC3)CC2)c2nn(-c3ccc(Cl)cc3)c(C)c12,inactive
11,Cc1ccc(S(=O)(=O)c2nc(S(C)(=O)=O)sc2N2CCC(C(N)=O)CC2)cc1,"inconclusive [inhibitor, partial curve]"
12,C#CC(=O)N(c1ccc(OC)c(OC)c1)C(C(=O)NC1CCCC1)c1cccs1 (stereo unspecified),active: 5.62 µM
13,CCOC(=O)C1(C)/C(=N/Nc2ccccc2Cl)C(=O)C(=O)N1c1ccccc1 (stereo unspecified),"inconclusive [inhibitor, partial curve]"
14,N#CCc1ccc(NC(=O)c2ccc(S(=O)(=O)N3CCOCC3)cc2)cc1,"inconclusive [inhibitor, partial curve]"
15,COC(=O)c1ccccc1CCC(C)=O,"inconclusive [inhibitor, partial curve]"
16,CC(=O)N(Cc1ccc(F)cc1)C1=C(NCCc2ccccc2)C(=O)c2ccccc2C1=O,"inconclusive [inhibitor, full curve, poor fit]"
17,CS(=O)(=O)N(CC(=O)NCCSCc1ccco1)c1ccc2c(c1)OCO2,"inconclusive [inhibitor, partial curve]"
18,CC(C)=NNC(=O)c1c(O)c2ccccc2[nH]c1=O,"inconclusive [inhibitor, full curve, poor fit]"
19,Nn1c(SC/C=C/c2ccccc2)nnc1-c1ccncc1,"inconclusive [inhibitor, partial curve]"
20,COc1cccc(CNC(=O)c2ccc3nc(-c4ccc(F)cc4)c(-c4ccc(F)cc4)nc3c2)c1,inactive
21,CCCCC(=O)N/N=C/c1c(O)n(Cc2ccco2)c(=O)[nH]c1=O,"inconclusive [inhibitor, partial curve]"
22,CCN=C1S/C(=C/c2ccc(-c3ccc(F)cc3)o2)C(=O)N1CC,active: 44.7 µM
